# According to the supplement of paper PMC3334620:
# Over roughly 33,000 sequences, “E-score (-0.5 to 0.5)” has its median near -0.043; the highest 2% begin near 0.37. The list shows a part of the results.
# Molecular target: T1, Upc2 (UniProt Q12151)
# T1 sequence: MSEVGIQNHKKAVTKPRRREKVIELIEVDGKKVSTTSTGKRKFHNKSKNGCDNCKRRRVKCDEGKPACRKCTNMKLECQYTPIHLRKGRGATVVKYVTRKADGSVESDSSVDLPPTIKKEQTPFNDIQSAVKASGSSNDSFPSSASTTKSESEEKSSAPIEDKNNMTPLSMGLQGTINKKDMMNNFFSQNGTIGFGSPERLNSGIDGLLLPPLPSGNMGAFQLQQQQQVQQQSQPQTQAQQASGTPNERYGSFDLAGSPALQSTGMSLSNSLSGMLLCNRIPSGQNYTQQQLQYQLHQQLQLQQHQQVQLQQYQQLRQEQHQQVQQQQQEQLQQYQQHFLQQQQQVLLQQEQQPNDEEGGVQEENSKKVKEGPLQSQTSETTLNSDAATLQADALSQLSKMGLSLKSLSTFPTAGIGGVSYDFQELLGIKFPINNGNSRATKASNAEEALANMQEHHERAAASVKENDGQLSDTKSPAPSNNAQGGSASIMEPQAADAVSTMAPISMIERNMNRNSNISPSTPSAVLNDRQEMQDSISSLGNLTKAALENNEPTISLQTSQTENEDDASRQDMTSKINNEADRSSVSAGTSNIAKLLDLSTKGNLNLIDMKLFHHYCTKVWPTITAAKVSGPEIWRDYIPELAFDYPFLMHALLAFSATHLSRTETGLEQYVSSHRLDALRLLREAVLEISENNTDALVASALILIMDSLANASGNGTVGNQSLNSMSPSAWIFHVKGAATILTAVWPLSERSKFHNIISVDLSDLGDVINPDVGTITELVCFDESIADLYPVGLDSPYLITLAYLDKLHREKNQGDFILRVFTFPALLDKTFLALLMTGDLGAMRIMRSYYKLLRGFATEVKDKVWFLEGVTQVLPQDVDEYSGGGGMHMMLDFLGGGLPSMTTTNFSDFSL
# Assay: PBM E-score (8-mer binding enrichment) (E-score (-0.5 to 0.5)); higher = stronger / more preferred TF binding; most listed sequences are background and not binding sites
# Settings: protein concentration: 200 nM; construct: GST-full length
# Procedure, shortened: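 PURExpress in vitro transcription/translation supplied GST-tagged yeast transcription factors, either full-length or DNA-binding domain. Applied at about 100-200 nM to universal all-10-mer Agilent arrays double-stranded by primer extension, the bound protein was detected with fluorescent anti-GST. E-scores, modified Wilcoxon-Mann-Whitney statistics, were given by the Universal PBM Analysis Suite to ungapped eight-base words pooled with their reverse complements after masliner normalisation.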
row,Sequence,PBM E-score
1,GGACGTCA,-0.198
2,ATTCTTAG,-0.0823
3,ACAAACTA,-0.00892
4,AATGTAAT,0.0352
5,AGAACGCC,-0.0507
6,CCGCGTCC,-0.071
7,GATTAACC,0.0372
8,AATGCAAA,-0.0635
9,GGCATGAA,0.00527
10,AATCCGGG,-0.23
11,ACCCTGTC,0.005
12,AGTAAGTA,-0.0261
13,CGGTCCCA,0.177
14,CCGGCGAA,0.121
15,AATAGATA,-0.00376
16,GTCACGTA,0.237
17,CTCGCGAG,0.144
18,AATGTTGT,0.0348
19,CTCTCCCC,-0.305
20,CGTCACGA,0.133
21,CGGCTACA,0.0225
22,GCTTTTCA,-0.0167

row,Sequence,PBM E-score
1,AGGCACTC,-0.0682
2,CGCAGGCA,-0.178
3,ATACGTAA,0.334
4,CCAACCAG,-0.079
5,CAAATGGG,-0.196
6,GGAGCCAC,-0.00244
7,ACTATTAT,-0.108
8,ACTGGTTC,-0.0269
9,CCGCTGCG,0.00129
10,ATGGTCTC,-0.0847
11,ATCGAGCA,-0.00379
12,CCGACACG,0.0185
13,ATGGGTGA,-0.215
14,CTCTCTAC,-0.00069
15,GGGCACCA,-0.208
16,CGGTCGCA,0.0322
17,GTTCCACA,0.0553
18,CACGCCGA,-0.19
19,AGGTACAC,-0.0721
20,TAGACCCA,-0.298
21,CACCCACA,-0.143
22,CCACGGGA,-0.00415

row,Sequence,PBM E-score
1,GATTATCC,-0.0434
2,CCGCCAGG,-0.154
3,CAGTGAGC,-0.196
4,TCCTCCCA,-0.145
5,AGGAAGGG,-0.322
6,CTCTAGCA,-0.228
7,AATCTTGG,-0.364
8,CGGCCGTA,0.378
9,ACTGTAGC,-0.0955
10,AAAAAAAA,-0.0227
11,ACCCGAAC,0.278
12,ATGGTACA,-0.173
13,AGGGGTTG,-0.106
14,TGCGACAA,0.141
15,GAAGAAGC,-0.195
16,ATTAGGGG,-0.067
17,CGCCCCCA,-0.189
18,GCTACTAA,-0.147
19,ATAGCATA,0.14
20,GGAGCCAA,-0.242
21,GCCGGGGA,-0.273
22,AACGCGGA,0.152

row,Sequence,PBM E-score
1,ACCCTACA,0.0453
2,CCGCAGGC,-0.0387
3,CATTCGAC,-0.128
4,AAGCAGAA,-0.0907
5,AATTGGGC,-0.199
6,CCTAGTGC,-0.199
7,AAGCCACT,-0.122
8,ACCCCTCC,-0.102
9,ACGAGACT,0.337
10,CTAGCAAA,-0.221
11,AAGGAGAT,-0.197
12,AATATCAT,-0.0596
13,TCCACAAA,-0.00827
14,ACTCAACT,0.0493
15,AATCCTAA,-0.0492
16,AGACAGTA,-0.167
17,AGGGGTAG,-0.0712
18,GATTTTCA,0.115
19,GAAAGCTA,-0.143
20,AACGTCTG,0.0524
